In all, about 310,000 compounds went through this assay and about 14,000 (4.5%) showed an effect of 50% or more. Effects have a minus sign here. This is one part of the list.
The molecules below were run against human ether-à-go-go-related gene (hERG) potassium channel (human, UniProt Q12809) (assay: primary screen, population patch clamp on CHO cells stably expressing hERG).
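Further: peak tail current of the secondary pulse compared with the same well before compound.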

Chain of human ether-à-go-go-related gene (hERG) potassium channel (Q12809 whole entry, looked up): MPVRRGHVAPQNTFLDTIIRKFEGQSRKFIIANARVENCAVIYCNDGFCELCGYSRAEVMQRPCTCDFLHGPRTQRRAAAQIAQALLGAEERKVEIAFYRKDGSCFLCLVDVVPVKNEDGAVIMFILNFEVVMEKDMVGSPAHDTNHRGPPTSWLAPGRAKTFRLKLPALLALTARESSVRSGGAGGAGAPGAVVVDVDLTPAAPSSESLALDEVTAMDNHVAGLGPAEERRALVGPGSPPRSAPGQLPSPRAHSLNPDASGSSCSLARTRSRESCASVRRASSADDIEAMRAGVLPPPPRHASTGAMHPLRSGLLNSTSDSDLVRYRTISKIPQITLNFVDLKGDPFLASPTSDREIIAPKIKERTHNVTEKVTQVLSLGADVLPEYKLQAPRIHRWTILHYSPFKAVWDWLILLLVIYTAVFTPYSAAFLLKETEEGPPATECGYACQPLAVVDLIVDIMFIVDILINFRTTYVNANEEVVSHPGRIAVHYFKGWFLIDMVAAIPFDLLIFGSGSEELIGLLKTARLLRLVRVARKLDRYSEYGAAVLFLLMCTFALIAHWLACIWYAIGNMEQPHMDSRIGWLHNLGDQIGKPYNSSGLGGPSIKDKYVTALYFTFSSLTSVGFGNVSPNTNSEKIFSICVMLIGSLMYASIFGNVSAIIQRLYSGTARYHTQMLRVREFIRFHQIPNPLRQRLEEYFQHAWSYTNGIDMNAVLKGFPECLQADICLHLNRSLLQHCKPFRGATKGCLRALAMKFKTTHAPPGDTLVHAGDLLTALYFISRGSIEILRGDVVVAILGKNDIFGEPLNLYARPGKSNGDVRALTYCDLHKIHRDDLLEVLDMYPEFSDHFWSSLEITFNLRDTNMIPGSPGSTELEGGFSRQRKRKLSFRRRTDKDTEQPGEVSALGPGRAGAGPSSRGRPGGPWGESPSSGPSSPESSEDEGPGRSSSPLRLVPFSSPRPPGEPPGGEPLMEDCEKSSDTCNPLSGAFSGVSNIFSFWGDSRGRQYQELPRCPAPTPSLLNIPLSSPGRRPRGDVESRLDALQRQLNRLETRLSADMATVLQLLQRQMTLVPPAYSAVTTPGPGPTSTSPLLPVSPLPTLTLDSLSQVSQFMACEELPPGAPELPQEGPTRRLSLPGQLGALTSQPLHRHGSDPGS

SMILES | hERG current change (%, negative = inhibition) at 10uM [%]
Cc1cccc(-c2nc3ccccc3c(=O)n2NC(=O)c2cccnc2Cl)c1 | 15.6
Cc1cccc(N(CC(=O)NCc2ccco2)C(=O)CCC(=O)Nc2ccccn2)c1C | -29.8
O=S(=O)(/N=C(/Nc1cc(N2CCOCC2)ncn1)c1ccccc1)c1ccccc1 | -9.71
Cc1nnc(SCc2ccc(F)cc2)n1NC/C=C/c1ccccc1 | -18.6
O=C(CNC(=O)c1ccccc1F)NCCCN1CCCC1=O | 3.07
Cc1onc(-c2ccccc2)c1-c1csc(N/N=C/c2ccccc2)n1 | 8.79
Cc1cccc(NC(=O)c2ccc(C3SCC(=O)N3CCc3ccccc3)cc2)c1 (stereo not shown) | 11
O=C(Nc1nccs1)c1ccc(Br)c(S(=O)(=O)N2CCCC2)c1 | 7.98
CC(C)=C(NC(=O)c1ccccc1)C(=O)Nc1cccc(C)c1 | 15.9
COc1ccc(-c2cc(C(F)(F)F)n3nc(C(=O)N4CCC5(CC4)OCCO5)cc3n2)cc1OC | -1.59
CC(=O)Nc1ccc(S(=O)(=O)N2CCN(C(=O)c3cccnc3)CC2)cc1 | -1.06
CCNc1nc(SCC(=O)Nc2ccc(Cl)c(Cl)c2)nc(N(C)C)n1 | 14.8
CCc1c(C)nc2c(OC)cccc2c1SCCC(=O)O | -1.31
Cc1cc2nc(/C=C/c3cccnc3)[nH]c2cc1C | -11.6
COc1cccc(C(=O)O[C@@H]2[C@H](Cc3ccccc3)NS(=O)(=O)[C@H]3C[C@@H]4C=C[C@]23O4)c1 | 5.45
Cc1c(C(=O)O)sc2nc3n(c(=O)c12)CCCCC3 | 9.43
Nc1nccc(/C=C/c2ccc(Cl)cc2)n1 | 3.28
Clc1cccc(N/N=C(\Cc2nc3ccccc3[nH]2)c2ccccc2)c1 | 2.01
CCN(CC(=O)Nc1c(F)cccc1F)C(=O)c1ccc(Cl)c(S(=O)(=O)N2CCCC2)c1 | -1.4
COC1CCN(C(=O)c2cc(COc3ccc(-n4cncn4)cc3)on2)CC1 | -18.6
Cc1ccc(S(=O)(=O)N2Cc3ccccc3CC2C(=O)NC(C)(C)C)cc1 (stereo not shown) | 3.23
N#C/C(=C\c1ccccc1[N+](=O)[O-])C(=O)NCc1ccccc1 | -12.2
Cc1cccc(C(=O)N2CCN(c3ccc(N4CCOCC4)nn3)CC2)c1 | -25.3
CC(C)CN1CN(Cc2ccccc2)CNC1=S | 3.53
CCN1CCN(c2ccc(N=Cc3ccccc3O)cc2)CC1 | 18.2
COC(=O)Cn1c(CN(C)Cc2ccccc2)nc2c1c(=O)n(C)c(=O)n2C | 8.05
Cc1ccc(OCC(=O)N/N=C/C=C/c2ccco2)cc1 | -45.9
COc1ccc(S(=O)(=O)NCCc2nnc3ccc(SCC(=O)Nc4cc(C)on4)nn23)cc1 | 8.97

SMILES | hERG current change (%, negative = inhibition) at 10uM [%]
Cc1cc(C)c(S(=O)(=O)c2ccccc2C)c(Oc2ccccc2)n1 | -5.03
CC(C(=O)N1CCCCC1)N(C)CC(=O)Nc1cccc(F)c1.O=C(O)C(=O)O (stereo not shown) | -3.44
O=C(CC12CC3CC(CC(C3)C1)C2)NC(=S)N1CCCCC1 | 26.6
COc1ccc(C2N(c3cc(Cl)ccc3OC)C(=O)C3CCCN32)cc1 (stereo not shown) | 2.87
Cc1ccc(S(=O)(=O)NC(C)(C)CN2CCNCC2)cc1 | -9.34
CCCCN1Cc2cc(C(=O)c3cc(F)ccc3O)cnc2NC1=O | -19.9
CCSc1nnc(NC(=O)c2cccc(S(=O)(=O)N(C)c3ccc(C)cc3)c2)s1 | 0.388
CCOc1cc(N2CCOCC2)c(OCC)cc1NC(=O)COC(=O)CCn1c(C)csc1=O | -48.9
Cc1cc(C)c(C)c(S(=O)(=O)NC(C)C(=O)O)c1C (stereo not shown) | 13.2
Cn1nccc1C(=O)Nc1ccc(OC(=O)c2ccnn2C)cc1 | -6.68
Cc1ccc(C)c(OCc2n[nH]c(=S)o2)c1 | 10
COc1ccc(CN2C(=O)c3ccccc3C2C(=O)NC2CCC(C)CC2)c(OC)c1 (stereo not shown) | 12.6
COc1ccc(CNCCNC(=O)c2cccs2)c(OC)c1OC | -1.32
Cc1ccc2nc(Cl)c(/C=C/C(=O)c3ccco3)cc2c1 | 9.73
CCN1CCN(CCCNC(=O)CS(=O)(=O)Cc2nc(-c3ccccc3C)oc2C)CC1 | 14.7
O=C(NNC(=O)c1csc(N2CCOCC2)n1)c1ccc(=O)[nH]c1 | 6.26
CCCNC(=O)c1ccc(N2CCC3(CC2)CC(c2ccccc2)=NO3)c(NC(=O)Cc2ccc(F)cc2)c1 | -23.9
COc1ccc(Cn2c(C)nc3ccc([N+](=O)[O-])cc3c2=O)cc1 | -20
CCS(=O)(=O)N1CCC(C(=O)NCCCOC)CC1 | 10.4
COc1cccc(NC(=O)Cn2nnc(C(=O)Nc3cc(Cl)ccc3OC)c2N)c1 | 28.8
O=c1c2c(-c3cccs3)csc2[nH]c(=S)n1-c1ccccc1 | 8.87
O=C(CN1CCN(S(=O)(=O)N2CCCCC2)CC1)Nc1cc(Cl)ccc1Cl | 10.7
COc1ccc(-c2csc(N(CCCN(C)C)C(=O)c3ccc(F)cc3)n2)cc1.Cl | -58.1
COc1ccc(CN(CC(=O)NCc2ccccc2)C(=O)CCC(=O)Nc2ccccn2)cc1 | -21.1
Cc1cccc(-c2ccc3ncnc(NCc4cccnc4)c3c2)c1 | -70.5
CCCCCCC1CC(C)(/C(C)=N/NC(N)=O)OC1=O (stereo not shown) | -50.1
CCNC(=O)CSc1ncnc2sccc12 | 4.15

Source: PMC4336329 (PLoS ONE, 2015)
